# Reference: publication PMC12136788
# This is one part of the list.
# B1: chr17:77216858:77216994:+|3pUTR|ENSG00000129657|unk|total|mutant (ssRNA)
# RNA: GGGAGUUCUACAGUCCGACGAUCUGUUUCUACCUUCCGUACCUUGCCACUCUUUUAAAACGCUGCUGUCAUUUCCCAUUUCUCCGUACUAAUGAUUCUUUGAUUCUCCCUCUAUUAUGUCUUAAUUCACUUUCCUUCCUAAAUCAACAGAGGAUUGAGCAUCA
# B2: ENSG00000149294:stop:overlap|stop_codon|ENSG00000149294|stop_codon|NA|stop_codon (ssRNA)
# RNA: GGGAGUUCUACAGUCCGACGAUCCUGCAUCCUACACCUUUGUCUCAUUGCUUUUCUCUGCAGUGACUCUUCUUUUGCUCUGUUAGGAACUUGAACACAAAAAUUAAAUUUGCUUAAAAGCCCAGUUCCUAUGAAAAAGAUCAGCAACAGAGGAUUGAGCAUCA
# B3: chr10:51697484:51697585:-|3pUTR|ENSG00000177613|unk|total|mutant (ssRNA)
# RNA: GGGAGUUCUACAGUCCGACGAUCAAUGGGUGCAAAAAGCUGACUUCUGUAUCCCCACACUUGGAUCCGGGUUUCCCUCCUCCCCGAACCUAAUCUUAUUUUUUGUUCUUUUUCUUUCUUUCUGUUUUCCUUUUUUUUUUAAUUCAACAGAGGAUUGAGCAUCA
# B4: chrX:55006554:55006655:+|CDS|ENSG00000169188|unk|FALSE|unique (ssRNA)
# RNA: GGGAGUUCUACAGUCCGACGAUCAGGGCGCAAGUGGAUGGACAGCUUGCUCAGUAACUUGGGGUGCCAGUCUGCCUCUCAUGUAGGGCCCUUCAUCGAUAGCUACCGCUGCUUCCAACCAAAGCAGGAGGGGGCCUUCACCUGCAACAGAGGAUUGAGCAUCA
# B5: ENSG00000198589:be:win_4651|CDS|ENSG00000198589|bound_else_gene|NA|bound_elsewhere_windowed (ssRNA)
# RNA: GGGAGUUCUACAGUCCGACGAUCAUUUUGGAACCCCAAAAUGAAAGGCAUAGCCAGUCAUGUACAGAAACUGGCAGUGAAAAUGAGAAUGUAUCACUCUCUGAAAUCACACCAGCAGCAUUCAGCACUUUAACUACGGCAUCACAACAGAGGAUUGAGCAUCA
# B6: chr13:106491723:106491923:-|3pUTR|ENSG00000125266|msi1|total|mutant (ssRNA)
# RNA: GGGAGUUCUACAGUCCGACGAUCCAGACUCAGCUGCUAUACUUAUCACAUUUUAUUAAACACAGGGAAAGCAUUCCGGAGAACCGCAGAGAGCCAAAUCUGACCUAAAAGUUGAAAAGCCAAAGGUCAAACAGGCUGUAAUUCCAACAGAGGAUUGAGCAUCA
# B7: chr16:50751694:50751795:+|CDS|ENSG00000083799|unk|FALSE|unique (ssRNA)
# RNA: GGGAGUUCUACAGUCCGACGAUCGCUUUUUCAGUGUGAUGAAGAUUGUGGCGUGUUUGUUGCAUUGGACAAGCUAGAACUCAUAGAAGAUGAUGACACUGCAUUGGAAAGUGAUUACGCAGGUCCUGGGGACACAAUGCAGGUCAACAGAGGAUUGAGCAUCA
# B8: chr1:45660322:45660423:-|5pUTR|ENSG00000159592|unk|FALSE|unique (ssRNA)
# RNA: GGGAGUUCUACAGUCCGACGAUCUCCCCUUCCCCCCUUCCCCUUUUCCCCUUUCCCCUUUUGGAAACGUGUCAGGAACCAAAUAGUUUAAGAUGAGCAGUUGAGGGGACUGAGAGAGUGAUCGACACAGAACCUGGCUUCUUCCAACAGAGGAUUGAGCAUCA
# B9: chr13:19825080:19825183:-|CDS|ENSG00000132950|unk|total|mutant (ssRNA)
# RNA: GGGAGUUCUACAGUCCGACGAUCUUUCCGAGAAGAAAAUGAGAAACAAUUAUAUGGAUCGUCAAAUACACUUUUGAAAAAAACCGAGGGAAUCCCAGAAAAAAAGGAAAAGACUUCACAGCUACAGCUUUCAGCCGAAUGUGGCAACAGAGGAUUGAGCAUCA
# B10: ENSG00000198589:be:win_2651|CDS|ENSG00000198589|bound_else_gene|NA|bound_elsewhere_windowed (ssRNA)
# RNA: GGGAGUUCUACAGUCCGACGAUCAAAAGAUAACAGAAAUGGUAUACGCCAUAUUCAGAAUCCUGCUUUACCAUGCAGUCAAAUAUGAGUGGGGUGGCUGGCGUGUAUGGGUAGACACUUUAUCAAUCACUCAUUCAAAGGUCACAACAGAGGAUUGAGCAUCA
# B11: chr1:119913532:119913650:-|3pUTR|ENSG00000134250|msi1|total|mutant (ssRNA)
# RNA: GGGAGUUCUACAGUCCGACGAUCUCAUGCUCUUGGCAAUUUCUUUGACUUUCUUUUAAGGGCAGAAGCAUUUCCGUUAAUUGCCGAUAAAGAACCGUUUUCUUCCUCUUCUCCUUGGGCCAGUUAAUAAUUGGUCCAUGGCUACAACAGAGGAUUGAGCAUCA
# B12: chr3:124966548:124966651:-|3pUTR|ENSG00000173706|unk|total|mutant (ssRNA)
# RNA: GGGAGUUCUACAGUCCGACGAUCAGGAAGAAUGCAAAGUUCAGUAUUUCAAUACUUUGUAUUUUACUUGAAAUUACCCUCCGCCGCAUCUUUUUUUUCCUGUCUGAAAGCUUUUGUGUGGAUGAGAAGGGACAUUUCAUUUCCCAACAGAGGAUUGAGCAUCA
# B13: chr9:125236489:125236593:-|3pUTR|ENSG00000044574|msi1_unk|FALSE|overlapping (ssRNA)
# RNA: GGGAGUUCUACAGUCCGACGAUCUGUAGACACUGAUCUGCUAGUGCUGUAAUAUUGUAAAUACUGGACUCAGGAACUUUUGUUAGGAAAAAAUUGAAAGAACUUAAGUCUCGAAUGUAAUUGGAAUCUUCACCUCAGAGUGGACAACAGAGGAUUGAGCAUCA
# B14: chr8:103229222:103229323:+|3pUTR|ENSG00000164929|unk|total|mutant (ssRNA)
# RNA: GGGAGUUCUACAGUCCGACGAUCUAAUUUUCCCGUAUGUCUUGAAACAUGUUCAUCUGGAAGUAUUUUCCUCCAAAGUAAUGCCGCAUGAUUUUUCAAGGAUUGUUAACAUGCCUGGGAUUGGGAAAGACCGGACUAAAGUUGCAACAGAGGAUUGAGCAUCA
# B15: ENSG00000107863:be:win_5351|CDS|ENSG00000107863|bound_else_gene|NA|bound_elsewhere_windowed (ssRNA)
# RNA: GGGAGUUCUACAGUCCGACGAUCGGAAUCACAAAGUGAAUGCCGAGACUGCUAAAAGGAAAAGCAUCCGGCGCAGACAUACACUAGGAGGGCACAGAGAUGCUACCGAAAUCAGCGUUUUGAAUUUUUGGAAAGUGCAUGAGCCAACAGAGGAUUGAGCAUCA
# B16: chr8:22006364:22006465:+|3pUTR|ENSG00000130227|msi1|FALSE|unique (ssRNA)
# RNA: GGGAGUUCUACAGUCCGACGAUCUGUUGCUGCUAGUUGUACACAUCUCUAGUUCAGCUCUUGCCCACGGGACACUCAUCAAUUAGGUUUUAUUUUUAUUUCUUUCCUCUACCCCCAGAAACAAGCCUGUUAAUUUUUUUUCCUCAACAGAGGAUUGAGCAUCA
# B17: ENSG00000107863:be:win_4101|CDS|ENSG00000107863|bound_else_gene|NA|bound_elsewhere_windowed (ssRNA)
# RNA: GGGAGUUCUACAGUCCGACGAUCUUUACUCACCAACAUUGGAAGGACAGGAGUCUCCCCAGGAGAUGUAUCAGAUUCAGCUACUAGUGACUCAACAAAAUCUAAGGGUUCUUGGGGAUCUGGAAAGGAUCAGUAUAGCAGGGACAACAGAGGAUUGAGCAUCA
# B18: chr6:46858128:46859523:-|CDS|ENSG00000069122|control|control|control (ssRNA)
# RNA: GGGAGUUCUACAGUCCGACGAUCAGCUGUGGUGUGGAAAUCGGUGACCAAGAACCGGACUUCUUAUAUGCGCCACACCUGCAUAGUGAAUAUCGCUGCCUCCCUUCUGGUCGCCAACACCUGGUUCAUUGUGGUCGCUGCCAUCAACAGAGGAUUGAGCAUCA
# B19: chr7:50445662:50445763:-|CDS|ENSG00000132436|msi1|FALSE|unique (ssRNA)
# RNA: GGGAGUUCUACAGUCCGACGAUCGUUAUCUCAACGGGGAGAUGGUGAGCAUGAAUCUUCUAGAAGGAUAAAAACAGAAUUUUUAGUUCAAUUAGAUGGAGCAACAACAUCUUCUGAAGAUCGUAUCCUAGUGGUGGGAGCAACCAACAGAGGAUUGAGCAUCA
# B20: ENSG00000163902:stop:overlap|stop_codon|ENSG00000163902|stop_codon|NA|stop_codon (ssRNA)
# RNA: GGGAGUUCUACAGUCCGACGAUCUCAUCUCAGGAAAGCGCCAGGAGCUGGUCACCAAGAUCGACCACAUCCUGGAUGCCCUGUAGCCCCUGCCCGCAUCCUCCAGGGGGCCCAGGGUGCCUGCACUUUGCUGUGGCAGGCAGACAACAGAGGAUUGAGCAUCA
# B21: chr10:84150713:84150851:+|CDS|ENSG00000165678|unk|total|mutant (ssRNA)
# RNA: GGGAGUUCUACAGUCCGACGAUCUCUUCCACCUACCACCGUGGCUGGUGCCACUCUUUACUCAGUGGCAAUGUACGGUGGAUCCGUUCUUUUCAGCAUGUUCCUUCUGUAUGAUACCCAGAAAGUAAUCAAGCGUGCAGAAGUCAACAGAGGAUUGAGCAUCA
# B22: chr11:75587191:75587292:-|CDS|ENSG00000171533|unk|total|mutant (ssRNA)
# RNA: GGGAGUUCUACAGUCCGACGAUCACAGCCUCCAAAGAAUCAAGGUCGUACCGUCCCUGAACCUCUGAAGAAUCAAGUUCCUACCGUCCCAGUGCCUCUGAAGGAUCAAGAUCCUCUGGUGCCAGUACCAGCAAAGGACCAAGGCAACAGAGGAUUGAGCAUCA
# Molecular target: MSI1 full-length (mouse, UniProt Q61474 1-362)
# UniProt Q61474, sequence (Q61474 whole entry): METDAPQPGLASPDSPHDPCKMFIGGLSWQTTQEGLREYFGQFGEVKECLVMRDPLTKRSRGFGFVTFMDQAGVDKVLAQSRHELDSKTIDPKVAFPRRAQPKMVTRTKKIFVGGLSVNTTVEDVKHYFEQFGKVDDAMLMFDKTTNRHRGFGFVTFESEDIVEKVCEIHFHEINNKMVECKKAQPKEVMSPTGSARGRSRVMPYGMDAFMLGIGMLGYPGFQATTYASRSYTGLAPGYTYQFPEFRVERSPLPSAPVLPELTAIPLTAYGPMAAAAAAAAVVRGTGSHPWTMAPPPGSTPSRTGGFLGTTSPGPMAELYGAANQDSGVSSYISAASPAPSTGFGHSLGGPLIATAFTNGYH
# Assay: nsRBNS (natural sequence RNA bind-n-seq); RBNS binding buffer (assumed for nsRBNS): 25 mM Tris pH 7.5, 150 mM KCl, 3 mM MgCl2, 0.01% Triton X-100, 500 ug/ml BSA, 20 U/ml SUPERase-In, 4 C; UNK is unkempt and MSI1 is Musashi-1; names of the RNAs are library labels; protein concentration not given here; high values mean tight binding
row,Binder,binding signal [enrichment R]
1,B1,1.55
2,B2,0.87
3,B3,1.57
4,B4,0.534
5,B5,0.321
6,B6,1.47
7,B7,0.687
8,B8,0.861
9,B9,0.512
10,B10,0.476
11,B11,0.235
12,B12,0.378
13,B13,4.38
14,B14,0.249
15,B15,0.431
16,B16,9.57
17,B17,2.02
18,B18,0.428
19,B19,1.55
20,B20,1.05
21,B21,0.402
22,B22,0.382
